Measurements reported in the supplement of paper PMC3334620.
In all, about 33,000 sequences were measured (“E-score (-0.5 to 0.5)”: median about -0.032, highest 2% from about 0.36 on). The list shows a part of the results.

biological target: T1, Sko1 (UniProt Q02100); experiment: PBM E-score (8-mer binding enrichment) (E-score (-0.5 to 0.5)); higher = stronger / more preferred TF binding; most listed sequences are background and not binding sites; details: protein concentration: 200 nM; construct: GST-full length
T1 sequence: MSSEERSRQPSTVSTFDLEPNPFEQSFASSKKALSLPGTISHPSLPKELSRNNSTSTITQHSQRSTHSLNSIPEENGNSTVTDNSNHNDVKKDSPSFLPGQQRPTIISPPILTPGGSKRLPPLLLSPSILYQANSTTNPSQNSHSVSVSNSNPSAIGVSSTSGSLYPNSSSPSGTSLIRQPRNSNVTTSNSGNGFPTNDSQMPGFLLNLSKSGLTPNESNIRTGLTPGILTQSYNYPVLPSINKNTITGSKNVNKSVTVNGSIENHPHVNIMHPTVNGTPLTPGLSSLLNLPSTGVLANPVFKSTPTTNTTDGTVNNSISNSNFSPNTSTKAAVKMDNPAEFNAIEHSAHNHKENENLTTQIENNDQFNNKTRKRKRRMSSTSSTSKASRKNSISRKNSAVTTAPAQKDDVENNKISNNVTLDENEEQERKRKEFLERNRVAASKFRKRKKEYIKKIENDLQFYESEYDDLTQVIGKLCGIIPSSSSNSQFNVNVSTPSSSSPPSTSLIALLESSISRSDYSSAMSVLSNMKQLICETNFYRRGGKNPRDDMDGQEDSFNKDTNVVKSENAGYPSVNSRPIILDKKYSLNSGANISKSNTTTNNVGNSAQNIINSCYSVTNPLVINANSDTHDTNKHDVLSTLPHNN
Description: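 Universal 'all 10-mer' protein binding microarrays (Agilent AMADID 015681) probed with GST-tagged S. cerevisiae TFs (full-length or DBD) made by in vitro transcription/translation (PURExpress), about 100-200 nM. Bound TF was detected with fluorescent anti-GST. Each ungapped 8-mer (which stands for itself and its reverse complement) is scored by the PBM enrichment score (E-score), a modified Wilcoxon-Mann-Whitney statistic from -0.5 to +0.5, computed with the Universal PBM Analysis Suite. Scale: above 0.35 generally sequence-specific binding.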

Sequence	PBM E-score
CCAATACC	-0.194
GCACCGGA	-0.289
CGAGTGGA	-0.154
CAACATGC	0.138
CTGTTTTA	0.035
AAAAGGTC	-0.18
CGGCGCGC	-0.0172
ATCCAAAC	0.149
AGATTCAC	0.00396
AACCAGCC	-0.271
TATATGGA	-0.0394
TACGCTAA	0.234
ACGTGTTC	0.36
CATCAGCG	0.0431
CAAAAAAA	0.187
AGTTCCAC	-0.143
CCGTAGAC	-0.135
ACCTTCCT	-0.223
AACCCCTC	-0.296
CAATAACG	0.287
CCCGATAA	0.0292
TCTGTGAA	-0.0754

Sequence	PBM E-score
CCAAGTGG	-0.213
TATATTCA	0.217
GTATTGCA	0.0688
CGCTCGGA	-0.188
CAGTTATA	-0.0005
TAGTACCA	-0.0841
AGTCGACG	0.192
AGAGCACC	-0.328
ATTAACTC	0.157
GCCGTGAA	-0.0961
TGGCGCAA	0.156
GGTGTCTA	0.0212
AGGGTAGC	-0.121
AGATTAAG	0.118
GGGTGAAA	0.0819
AGCCGAGC	-0.303
CATGCGTC	0.161
ATATCTCG	0.101
GAGCGTCA	0.233
CGGTATGA	0.22
GAGCGAAC	-0.212
TCAATACA	0.258

Sequence	PBM E-score
GTGTGCTA	-0.0545
ATAACACC	0.134
AAGAGTCA	-0.0261
AATGAAAG	0.111
AGCGAGTG	-0.0868
AAGTTACT	0.00332
GTTGACCA	-0.235
CCTAGAGG	-0.305
CGTACGGA	0.169
ACTATACC	-0.0667
ATAAGCAG	-0.0649
ACCCGGGC	-0.374
ATCCTCGC	-0.219
CGCGCGCA	0.222
GCACGTCC	0.0489
TGTTCTAA	0.161
AACGGGAC	-0.261
CACCCCGA	-0.277
GTAGGATA	-0.0561
ACGAGAAG	0.0444
CTAGTACC	-0.144
ATGAAGTC	-0.0237

Sequence	PBM E-score
TAAGCATA	0.192
AATCCACG	0.181
AAATGGTT	-0.105
AATATAAC	0.158
CGCCCGAC	-0.18
ATGGGCCA	-0.106
CAGTCCAA	-0.273
ACACGAGA	-0.0015
ACCGAAAG	-0.0787
AGACAGCA	-0.175
CATACTCG	0.074
TACTACAA	0.233
AAGTGTTA	-0.023
ACATAAAC	0.291
AGCGGACA	-0.249
AATAAACC	0.0579
TCGCCAGA	-0.123
ATTAACGC	0.12
CTACTCGA	0.00452
TCACCGAA	0.0652
